Measured values published in publication PMC12136788.
Some of the results follow.

T1: UNK ZnF1-3 (human, UniProt Q9C0B0 31-174)
T1 sequence: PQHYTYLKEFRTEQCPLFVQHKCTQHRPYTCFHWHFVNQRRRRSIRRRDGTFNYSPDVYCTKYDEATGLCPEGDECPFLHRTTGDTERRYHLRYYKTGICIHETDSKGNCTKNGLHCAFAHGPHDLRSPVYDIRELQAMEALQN

B1: chr16:45737064:45737065:-_ENSMUSG00000033157_ENSMUST00000066983|mus_hu|FALSE|FALSE (ssRNA)
RNA: GGGAGUUCUACAGUCCGACGAUCAAGCUGAUUAAACUUUGUCACUAAGGUAUCUGCAGCUGUAGCUACACCAAUAAGAGCCACGACCUUCUCUGGUCGUGCAAUUGCAGCAUGAAGCAUAAGCCACCCUCCAAGGCUAGAUCCCAACAGAGGAUUGAGCAUCA
B2: chr9:106791465:106791466:-_ENSMUSG00000032575_ENSMUST00000069036|mus_mus|FALSE|FALSE (ssRNA)
RNA: GGGAGUUCUACAGUCCGACGAUCUUUAGGCAUCAGUUCAUUUAUCUUCCGGAUAUAGUCAGACUUUUCUGCACAGCCUUUGCACAUCUCCCCCCAGUCGUCCAGGAUCUUCUUCAGCUCUUUCACCCGGAGCUUCUUCAGGUCCAACAGAGGAUUGAGCAUCA
B3: chr17:4849111:4849112:-_ENSG00000108518_ENST00000225655|hu_hu|FALSE|FALSE (ssRNA)
RNA: GGGAGUUCUACAGUCCGACGAUCCUGGCCCCCAGCCCAUGUGGUUUUGGCAGCAAUAAGGGGUAUGGGGUAAUGGCCCAAAAAAUAAAAUGGUUUGUGUGUGUAUGGGGAGGAAAGGGGUGCAAAGCUGUGGGGAGCGGUGAACAACAGAGGAUUGAGCAUCA
B4: chr18:48422213:48422214:+_ENSG00000082212_ENST00000321341|hu_hu|motif|central (ssRNA)
RNA: GGGAGUUCUACAGUCCGACGAUCGCUUGCCUUUUUCUUUUAUGUGCAAAUGUCGACAUGCCAAAGUACAAGUGGUGGAAACGGCUCUUAACCGGGACAACAUCUUUUCUUUCACCAGAGGUCUCGCGCCGCGACAGGUGGUACCAACAGAGGAUUGAGCAUCA
B5: chr12:105536279:105536280:+_ENSG00000136051_ENST00000332180|hu_mus|motif|central (ssRNA)
RNA: GGGAGUUCUACAGUCCGACGAUCAGCACUGAACAUGUAAUGUAAUCUGGCUGCAUCGACAGCAUUUUCAUAUACAUCAUCGGAAUAAAUCGGGAAGACAGCGCGAUGCCAGUAUAAAAAACAGCAGUCACACUGUGCUUGGACCAACAGAGGAUUGAGCAUCA
B6: chr17:21094002:21094003:+_ENSMUSG00000007564_ENSMUST00000007708|mus_hu|FALSE|FALSE (ssRNA)
RNA: GGGAGUUCUACAGUCCGACGAUCCAUGUAGCGGACGCGCCAGGACUUGUCUUCAGCGGCCUGGCGCAGAGUGGGCAUCACCAGGGCCUCCAGAUCCUCCUGGGGCAGAAGCUGGGCGAUGUUCACGCACGCCUCCACCGCCAGCAACAGAGGAUUGAGCAUCA
B7: chr5:144009550:144009551:+_ENSMUSG00000029587_ENSMUST00000032591|mus_hu|motif|central (ssRNA)
RNA: GGGAGUUCUACAGUCCGACGAUCGUCAAAAUUUACAGAAAAUAAAUCUCUAUAUCAACAGCUUAAAAUAAAUGACUUACCGGAAGUCCACUUCUGAACUGCAUAACUCCUAUAAAGGUUUCAGUCUGUACCAAUUAGAAUGUCCAACAGAGGAUUGAGCAUCA
B8: chr17:48772226:48772227:-_ENSG00000154945_ENST00000285243|hu_hu|motif|central (ssRNA)
RNA: GGGAGUUCUACAGUCCGACGAUCUAAGAUCAAACAAUUUGUUUACAAAAGCAACAGAUUUCAGAAUUGUGUAAAAAUCCGGAUAAUUUCAAAAUAACCUUUAUUUUUGAUACAAAAAUAAAGAUGCUAACUCCUUUAGCUCAGCAACAGAGGAUUGAGCAUCA
B9: chr4:96106342:96106343:-_ENSG00000182168_ENST00000453304|hu_hu|FALSE|FALSE (ssRNA)
RNA: GGGAGUUCUACAGUCCGACGAUCAAGAGCCUUAGGUUCUUCUAGGAGCUGUCCUCCCAUCUGUCUCUCAAGAUGUAAAAUUUCCUUCAGGGCAUCCUGGGUGUCAUCCAGACAGUAGACUCGGAUGCUGUACUCCAGCGAGGACAACAGAGGAUUGAGCAUCA
B10: chr3:8560387:8560388:+_ENSMUSG00000027500_ENSMUST00000029002|perfect_dup|motif|central (ssRNA)
RNA: GGGAGUUCUACAGUCCGACGAUCCAUACACUUCCCAUACUGAUAUCGCAUGAUCCAUUAUAAUAUAGGCAGGGGGAUUUACGGUGGGAGGGGCUUGCCAUACCCGCCAUUGCUUCAGCCAGACAGUUCAACCUGCAGUUCCUUCAACAGAGGAUUGAGCAUCA
B11: chr7:135612270:135612271:-_ENSG00000105887_ENST00000393085|hu_mus|hu_hu_hu_mus_False|78_88 (ssRNA)
RNA: GGGAGUUCUACAGUCCGACGAUCGUUUUUUUCUGAGAUGUUAAAUAUUCAGUGGAGAACAAAACUUACUUAACCUUUUAUUAAUGCGUGUUGUACCAAAAGCAGACAUUUUAGCUUCAUUUAUUCAAAAAUAUUAACAUUAAGCAACAGAGGAUUGAGCAUCA
B12: chr11:68312385:68312386:+_ENSG00000110075_ENST00000393800|hu_mus|motif|central (ssRNA)
RNA: GGGAGUUCUACAGUCCGACGAUCCUUGCUGAAGAAACUGGCGAGUAGUGGGUUCAAGGGGGACUCAUUUAGGAGGAAGCGGUACAAUUUCAUUAGCAAGGACUCAUCUUCCCCCAGUCUAUCAUUCAUCUGGGAGACAUCAGACAACAGAGGAUUGAGCAUCA
B13: chr11:77336104:77336105:-_ENSG00000074201_ENST00000525064|hu_mus|hu_hu_hu_mus_False|1_48 (ssRNA)
RNA: GGGAGUUCUACAGUCCGACGAUCCUCACACAUUGCUGUGAACAUCGCCUCCAAUGCUGACUUAUCACUGGGCACAAAUCGAAAUUCAGUAAUAGGUUCAACAUCAUCAUUGUCUUCCUCAUCUUCAUCAGAGAGAGCAGGUUCCAACAGAGGAUUGAGCAUCA
B14: chr12:25358290:25358291:-_ENSG00000133703_ENST00000311936|hu_hu|motif|central (ssRNA)
RNA: GGGAGUUCUACAGUCCGACGAUCGUACAGUUCAUGACAAAAAUAUUACAAAUUUUAGAUCACUUCACAGCACAUACUCCGGUAAACAUUUAAAAGUUAAUUUCAAUUAAAAGAGUGGUCAUUUUUAAUGUUUGAUAUGACCAACAACAGAGGAUUGAGCAUCA
B15: chr1:167535829:167535830:-_ENSMUSG00000026566_ENSMUST00000068705|mus_hu|FALSE|FALSE (ssRNA)
RNA: GGGAGUUCUACAGUCCGACGAUCAGGAGGGUUUUUGACAUCACAGAUAUAGGUGCCAUUGUGUAUAAACUGCAUAUUUUCUAUGUUGAUUGAUGCAUCUUUCUUGUCAAGGUCUCCAGCCCAGCUGAUUCUGUCUUUAAAUGGCAACAGAGGAUUGAGCAUCA
B16: chr16:94651144:94651145:+_ENSMUSG00000040785_ENSMUST00000117648|mus_hu|mus_mus_mus_hu_True|28_68 (ssRNA)
RNA: GGGAGUUCUACAGUCCGACGAUCAUUUUCUUGAAUCAAGUGGCGAAUAACAUAGUCCACUGCUUCAUGGACAAAAUUUCUGCUAGAAAAACAGGUUGUAUAGUCUUCCGUGCUCAGAACUUUCCAAGAAAGCAAUUCUUUGAGCAACAGAGGAUUGAGCAUCA
B17: chr9:66219764:66219765:+_ENSMUSG00000038664_ENSMUST00000042824|mus_mus|FALSE|FALSE (ssRNA)
RNA: GGGAGUUCUACAGUCCGACGAUCUUCAAAAUCAGGCAACUGUGGUCCUUUGAGGCAUAAAACCUGUUGAGGCAAAGGUACUACUUCCUUAUUGCUGAUCAGUUUAGAAUACAAAACGGUAACUCCCUCUCUUGUAGCAAUAGACAACAGAGGAUUGAGCAUCA
B18: chr11:121174221:121174222:+_ENSG00000109929_ENST00000392789|hu_mus|motif|central (ssRNA)
RNA: GGGAGUUCUACAGUCCGACGAUCGGUUGCACAGAAGAAGUAGAGAAUGUAAGCACCCAGGUUUGUGACAAUCAGGAGGCGGAUAGUUUGUCGGAUGAUGUUGUCCUCGGGCCACGUGGCUGGAUAUACAUACGGAGUGAAGAACAACAGAGGAUUGAGCAUCA
B19: chr12:3264740:3264741:-_ENSMUSG00000020671_ENSMUST00000021001|mus_hu|FALSE|FALSE (ssRNA)
RNA: GGGAGUUCUACAGUCCGACGAUCCCAUAUCUGUAGCUUGAUCUUCUUUCCUUGUAAUUCAACUGUUUUGAUCUUGAAGUCUAUUCCUAUGGUGGAAAUAAAGGUAGUAUUGAAGGCAUCAUCCGAAAAACGAAAAAGGACGCACAACAGAGGAUUGAGCAUCA
B20: chr2:37458628:37458629:-_ENSMUSG00000026915_ENSMUST00000072186|mus_mus|FALSE|FALSE (ssRNA)
RNA: GGGAGUUCUACAGUCCGACGAUCCUUAUACUGAAGCCCGGGCCUGAUCUGAUUUAAUCUCAUUAGUGCAUUCAUAAGGUCUAUUGCUUUACUAUCUAGAAUUUUCCUUAAGUUUCGUUUCAUCUUCUUGUUGGGAUCUUUAUCCAACAGAGGAUUGAGCAUCA
B21: 29977199_29977319_67_3pUTR_ENSG00000184117_ENST00000216121|human|control|control (ssRNA)
RNA: GGGAGUUCUACAGUCCGACGAUCGGGCGUCUCCAACUCCGCAGGUGCUGGACGGAAGUCAGGGUUCUAAUCCUCUGCGCGCUCUGCGACCUUGGCAAGCCCUUUGCCCACUCUGGGCCUCAGGAUCCACCUCGGUAAAAUGGGCAACAGAGGAUUGAGCAUCA
B22: 118366522_118367487_508_CDS_ENSMUSG00000030138_ENSMUST00000032237|mouse|control|control (ssRNA)
RNA: GGGAGUUCUACAGUCCGACGAUCACACCCACACUCAAUAAUUGUAAGUCUGCGCUUUUUACCUGACACAAUUGUCACAGGGCCUCUGAUCUCACUCAAUUUCUGUCUGGUAAAAUUCCGAAUCAGGCAUCGUAUCAAAGUGCUCAACAGAGGAUUGAGCAUCA

Each binder was assayed against T1, UNK ZnF1-3 (assay: nsRBNS (natural sequence RNA bind-n-seq); RBNS binding buffer (assumed for nsRBNS): 25 mM Tris pH 7.5, 150 mM KCl, 3 mM MgCl2, 0.01% Triton X-100, 500 ug/ml BSA, 20 U/ml SUPERase-In, 4 C; UNK is unkempt and MSI1 is Musashi-1; names of the RNAs are library labels; protein concentration not given here; high values mean tight binding).

Q: With B1 as the binder, how does the binding signal read?
A: 1 enrichment R

Q: How did the binding signal turn out when B2 was run?
A: 0.552 enrichment R

Q: For B3, which binding signal is on record?
A: 3.12 enrichment R

Q: Which binding signal does the source give for B4 here?
A: 0.83 enrichment R

Q: Which binding signal does the source give for B5 here?
A: 1.38 enrichment R

Q: Which binding signal does the source give for B6 here?
A: 0.451 enrichment R

Q: For B7, which binding signal is on record?
A: 0.8 enrichment R

Q: With B8 as the binder, how does the binding signal read?
A: 1.24 enrichment R

Q: B9 was tested. Which binding signal did it give?
A: 0.522 enrichment R

Q: With B10 as the binder, how does the binding signal read?
A: 1.28 enrichment R

Q: For B11, which binding signal is on record?
A: 1.17 enrichment R

Q: How did the binding signal turn out when B12 was run?
A: 1.19 enrichment R

Q: B13 was tested. Which binding signal did it give?
A: 0.881 enrichment R

Q: How did the binding signal turn out when B14 was run?
A: 1.65 enrichment R

Q: For B15, which binding signal is on record?
A: 0.576 enrichment R

Q: B16 was tested. Which binding signal did it give?
A: 0.626 enrichment R

Q: How did the binding signal turn out when B17 was run?
A: 1.17 enrichment R

Q: Which binding signal does the source give for B18 here?
A: 2.31 enrichment R

Q: B19 was tested. Which binding signal did it give?
A: 1.17 enrichment R

Q: How did the binding signal turn out when B20 was run?
A: 0.526 enrichment R

Q: For B21, which binding signal is on record?
A: 0.805 enrichment R

Q: Which binding signal does the source give for B22 here?
A: 0.917 enrichment R
